Molecules are shown by their SMILES. The campaign covered roughly 150,000 compounds. About 540 (0.36%) showed an effect of 50% or more. The list shows a part of the results.

A word on the % Inhibition: it is the change of the read-out against control, counted positive when it falls.

For the assay, the system named is Plasmodium falciparum. As to the kind of experiment: Primary screen in NF54 nanoGlo assay, in single point, at 2uM, 72h; a lower Z score goes with more inhibition. The assay is classed as functional, Erythrocyte. The following applies: timepoint 72 hour.
For the compound `Cc1cc(NC(=O)C2CCN(c3nc4nc[nH]c(=O)c4s3)CC2)ccc1Br`, the “% Inhibition” value was 12% and the Z score is -1.04.

As to `Cc1nc(C(=O)N2C3C=CCC2CC3)cs1` (centres undefined), the “% Inhibition” value is -1% and the Z score is on record as 0.12.

For `CCOC(=O)CNC(=O)c1cnn2c1OCCC2`, the “% Inhibition” value was -6% and the Z score was 0.87.

Turning to `Cc1ccc(C#N)nc1N1CCCN(CC(=O)N2CCCC2)CC1`, the “% Inhibition” value amounted to 9% and the Z score is reported as -1.39.

With `Cc1cc(C[C@H](C)Nc2ncnc3sc(C(=O)O)c(C)c23)[nH]n1`, the “% Inhibition” value was found to be 2% and the Z score is given as -0.28.

For the compound `COc1cccc(NC(=O)c2ccnc(-c3ccsc3)c2)c1`, the “% Inhibition” value is given as -4% and the Z score is listed as 0.46.

As to `FC1CNC(c2nc(-c3ccccn3)no2)C1` (centres undefined), the “% Inhibition” value is -6% and the Z score is 1.17.

With `O=C(Nc1ccc(-n2cncn2)nc1)c1cc[nH]n1`, the “% Inhibition” value is -13% and the Z score is recorded as 2.4.

Take `Cc1nc2n(n1)C[C@@H](NS(=O)(=O)Cc1ccccc1Cl)CC2`: the “% Inhibition” value was -7% and the Z score was determined as 0.74.

For the compound `CN(C)c1ccccc1NCc1cccc(F)c1`, the “% Inhibition” value is given as -15% and the Z score is recorded as 1.57.

Turning to `Cc1cc(CN2C[C@@H](F)C[C@H]2CN(C)c2nnnn2C)on1`, the “% Inhibition” value was -12% and the Z score amounted to 1.6.

In the case of `COc1cccc(NC(=O)Cn2c3c(c(=O)n2-c2ccccc2)Cc2cccc(OC)c2O3)c1`, the “% Inhibition” value is 7% and the Z score is -1.41.

Consider `Cc1cc(-n2cc(C(=O)O)c3c2[C@@H](c2ccc(C(C)C)cc2)CC(=O)N3)no1`, for which the “% Inhibition” value is -46% and the Z score amounted to 5.44.

As to `Cn1nccc1NC(=O)Cn1cc(-c2ccc(-c3nc4ccccc4[nH]3)o2)cn1`, the “% Inhibition” value was -10% and the Z score was 1.28.

For the compound `COc1ccccc1OCC(=O)NC(C)(C)C`, the “% Inhibition” value was 34% and the Z score is -3.85.

Regarding `Cc1oc(C)c(C(=O)N2CCOCC2)c1C`, the “% Inhibition” value was -15% and the Z score is 1.54.

`CC(CC(=O)N(C)C)NC1CCc2c(Br)cccc21` (centres undefined): the “% Inhibition” value is listed as 7% and the Z score was -0.65.

With `O=C(NCc1ccc(F)cc1F)C1CCN(c2cn[nH]c(=O)c2)CC1`, the “% Inhibition” value was 3% and the Z score is -0.55.

In the case of `CN(C[C@H]1CCCCO1)C(=O)c1ccc(F)cc1Cl`, the “% Inhibition” value came out at 5% and the Z score was -1.

On to `CC(C)N1CCN2C(=O)c3ccc(-c4ccccc4)cc3OCC[C@@H]3CC[C@H](O)[C@@H](CNC(=O)[C@@H]2C1)O3`, for which the “% Inhibition” value was -4% and the Z score was found to be 0.64.

`CCOC1CC(N(C)C(=O)CCCc2nc(C)no2)C12CCCC2` (centres undefined): the “% Inhibition” value is recorded as -12% and the Z score was 1.23.

Consider `CN1CCN(c2nc(N)nc(C(F)(F)F)n2)CCC1=O`, for which the “% Inhibition” value is given as -2% and the Z score came to 0.26.

As to `O=C(CN1C(=O)CCC1=O)OC1CN(c2nc3ccccc3s2)C1`, the “% Inhibition” value is 7% and the Z score is reported as -0.77.

Turning to `O=C(NCc1cccnc1-c1ccco1)c1ccc(F)cc1`, the “% Inhibition” value is recorded as -22% and the Z score turned out to be 4.23.

Consider `O=C(NCCNC(=O)c1c(O)c(Cl)cc(Cl)c1Cl)c1ccco1`, for which the “% Inhibition” value is -14% and the Z score is 1.67.

In the case of `Cn1ncnc1CCNC(=O)NC1CCCCC1Cc1ccccc1` (centres undefined), the “% Inhibition” value is recorded as -9% and the Z score amounted to 1.12.

Consider `CC#CCNc1cc(Cl)ccc1CS(C)(=O)=O`, for which the “% Inhibition” value is reported as -8% and the Z score came to 1.58.

Take `C#CCN[C@@H](CO)c1cc(F)c(F)c(F)c1`: the “% Inhibition” value is reported as -3% and the Z score is 0.38.

On to `C[C@@H](c1ccccc1)N1CCN(C(=O)c2nc3ccccc3s2)CC1`, for which the “% Inhibition” value was -6% and the Z score amounted to 0.72.

For `CC(NC(=O)CN1C(=O)COc2ccc(Cl)cc21)C1CCCO1` (centres undefined), the “% Inhibition” value is reported as 14% and the Z score is recorded as -1.9.

For the compound `O=C1CC[C@@H](c2ccccc2NC(=O)c2cccc3c2OCC3)N1`, the “% Inhibition” value stood at 1% and the Z score is -0.13.

Take `O=C(CCCn1ccnc1)Nc1nc2ccc(Br)cn2n1`: the “% Inhibition” value was determined as 4% and the Z score is given as -0.46.

On to `Cc1oc(-c2nc(C#N)c(N3CCOCC3)o2)cc1S(=O)(=O)N1CCCCCC1`, for which the “% Inhibition” value was 0% and the Z score is 0.01.

As to `CN(C(=O)CN1C(=O)c2cc(Cl)c(Cl)cc2C1=O)[C@H]1CCS(=O)(=O)C1`, the “% Inhibition” value is recorded as 5% and the Z score is recorded as -1.03.

In the case of `N#CC1CCC(N2CCN(c3ccc(C(N)=O)cc3)CC2)C1` (centres undefined), the “% Inhibition” value is on record as -9% and the Z score was 1.27.

As to `COC(=O)[C@@H]1CN(C(=O)Cc2ccon2)C[C@H]1c1ccc(Cl)cc1`, the “% Inhibition” value is listed as -2% and the Z score was determined as 0.46.

Consider `O=C(O)[C@@H](c1cccc(Cl)c1)N1CCC(Cc2nc(C3CCC3)no2)CC1`, for which the “% Inhibition” value was -17% and the Z score is on record as 2.71.

As for `Cc1ccc(CN(C)C(=O)Nc2cnns2)o1`, the “% Inhibition” value is recorded as -8% and the Z score is given as 1.03.

Regarding `Cn1nccc1CNc1nc2cc(Cl)ccc2n1C`, the “% Inhibition” value stood at 6% and the Z score is given as -1.12.

With `Cc1noc(C)c1CC(=O)N1CCC[C@H](Oc2ccncc2Cl)C1`, the “% Inhibition” value worked out at 0% and the Z score was 0.

For the compound `O=C(Nc1ccccc1OCC1CC1)N1CCN2CCC[C@H]2C1`, the “% Inhibition” value was -7% and the Z score is 0.99.

As to `O=C(Nc1ccc(-n2nn[nH]c2=O)cc1)c1ccc(-c2ccccc2)[nH]1`, the “% Inhibition” value worked out at 1% and the Z score is on record as -0.18.

The values are drawn from ChEMBL document CHEMBL4888484, “Replenishing the malaria drug discovery pipeline: Screening and hit evaluation of the MMV Hit Generation Library 1 (HGL1) against asexual blood stage Plasmodium falciparum ,using a nano luciferase reporter read-out” (2022).
